# Data from the supplement of paper PMC8728848.
# Some of the results follow.
# B1: FimD (Bordetella pertussis) (protein)
# chain: MPARVISFCGAALAVWAGLAVQPAMAVDPPVDCGRALGLHFWSSASLISDQTPDGTLIGKPVVGRSLLSKSCKVPDDIKEDLSDNHDGEPVDIVLELGSNYKIRPQSYGHPGIVVDLPFGSTEETGIAIYIDFGSSPMQKVGERQWLYPQKGEVLFDVLTINGDNAEVRYQAIKVGPLKRPRKLVLSQFPNLFTYKWVFMRGTSQERVLAQGTIDTDVATSTIDLKTCRYTSQTVSLPIIQRSALTGVGTTLGMTDFQMPFWCYGWPKVSVYMSATKTQTGVDGVALPATGQAAGMASGVGVQLINGKTQQPVKLGLQGKIALPEAQQTESATFSLPMKAQYYQTSTSTSAGKLSVTYAVTLNYD
# Columns and labels:
# Test in all cases: glycan array binding signal (z-score within array); higher = stronger binding
# Details in all cases: glycan notation: IUPAC condensed, linker removed
# Fuc(a1-2)Gal = target: Fuc(a1-2)Gal
# Procedure, shortened: (§1)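 Glycan array data came from 3228 arrays in the Consortium for Functional Glycomics database, and only arrays with an available protein sequence were kept. Glycan names were put into IUPAC-condensed notation, and columns mapping to the same glycan were averaged. The binding signal is a within-array Z-score, averaged across arrays of one protein sequence run at different concentrations or buffers and across linkers. A negative Z-score can be read as non-binding.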
# Fuc(a1-2)Gal(b1-3)GalNAc = target: Fuc(a1-2)Gal(b1-3)GalNAc
# Procedure, shortened: as §1
# [1] = target: Fuc(a1-2)Gal(b1-3)GalNAc(a1-3)[Fuc(a1-2)]Gal(b1-4)Glc
# Procedure, shortened: as §1
# [2] = target: Fuc(a1-2)Gal(b1-3)GalNAc(a1-3)[Fuc(a1-2)]Gal(b1-4)GlcNAc
# Procedure, shortened: as §1
# [3] = target: Fuc(a1-2)Gal(b1-3)GalNAc(b1-3)Gal
# Procedure, shortened: as §1
# [4] = target: Fuc(a1-2)Gal(b1-3)GalNAc(b1-3)Gal(a1-4)Gal(b1-4)Glc
# Procedure, shortened: as §1
# [5] = target: Fuc(a1-2)Gal(b1-3)GalNAc(b1-4)[Neu5Ac(a2-3)]Gal(b1-4)Glc
# Procedure, shortened: as §1
# Fuc(a1-2)Gal(b1-3)GlcNAc = target: Fuc(a1-2)Gal(b1-3)GlcNAc
# Procedure, shortened: as §1
# [6] = target: Fuc(a1-2)Gal(b1-3)GlcNAc(b1-2)Man(a1-3)[Fuc(a1-2)Gal(b1-3)GlcNAc(b1-2)Man(a1-6)]Man(b1-4)GlcNAc(b1-4)GlcNAc
# Procedure, shortened: as §1
# [7] = target: Fuc(a1-2)Gal(b1-3)GlcNAc(b1-2)Man(a1-3)[Fuc(a1-2)Gal(b1-3)GlcNAc(b1-2)Man(a1-6)]Man(b1-4)GlcNAc(b1-4)[Fuc(a1-6)]GlcNAc
# Procedure, shortened: as §1
# [8] = target: Fuc(a1-2)Gal(b1-3)GlcNAc(b1-3)Gal(b1-4)Glc
# Procedure, shortened: as §1
# [9] = target: Fuc(a1-2)Gal(b1-3)GlcNAc(b1-3)GalNAc
# Procedure, shortened: as §1
# [10] = target: Fuc(a1-2)Gal(b1-3)GlcNAc(b1-3)[Fuc(a1-2)Gal(b1-3)GlcNAc(b1-6)]GalNAc
# Procedure, shortened: as §1
# [11] = target: Fuc(a1-2)Gal(b1-3)GlcNAc(b1-3)[Gal(b1-4)GlcNAc(b1-6)]Gal(b1-4)Glc
# Procedure, shortened: as §1
# [12] = target: Fuc(a1-2)Gal(b1-3)GlcNAc(b1-3)[Neu5Ac(a2-6)Gal(b1-4)GlcNAc(b1-6)]Gal(b1-4)Glc
# Procedure, shortened: as §1
# [13] = target: Fuc(a1-2)Gal(b1-3)GlcNAc6S
# Procedure, shortened: as §1
# [14] = target: Fuc(a1-2)Gal(b1-3)[Fuc(a1-4)]GlcNAc
# Procedure, shortened: as §1
# [15] = target: Fuc(a1-2)Gal(b1-3)[Fuc(a1-4)]GlcNAc(b1-2)Man(a1-3)[Fuc(a1-2)Gal(b1-3)[Fuc(a1-4)]GlcNAc(b1-2)Man(a1-3)]Man(b1-4)GlcNAc(b1-4)GlcNAc
# Procedure, shortened: as §1
# [16] = target: Fuc(a1-2)Gal(b1-3)[Fuc(a1-4)]GlcNAc(b1-2)Man(a1-3)[Fuc(a1-2)Gal(b1-3)[Fuc(a1-4)]GlcNAc(b1-2)Man(a1-6)]Man(b1-4)GlcNAc(b1-4)[Fuc(a1-6)]GlcNAc(b1-4)[Fuc(a1-6)]GlcNAc
# Procedure, shortened: as §1
# [17] = target: Fuc(a1-2)Gal(b1-3)[Fuc(a1-4)]GlcNAc(b1-3)[Fuc(a1-3)[Gal(b1-4)]GlcNAc(b1-6)]Gal(b1-4)Glc
# Procedure, shortened: as §1
# [18] = target: Fuc(a1-2)Gal(b1-3)[Fuc(a1-4)]GlcNAc(b1-3)[Gal(b1-4)GlcNAc(b1-6)]Gal(b1-4)Glc
# Procedure, shortened: as §1
# Fuc(a1-2)Gal(b1-4)Glc = target: Fuc(a1-2)Gal(b1-4)Glc
# Procedure, shortened: as §1
# Fuc(a1-2)Gal(b1-4)Glc6S = target: Fuc(a1-2)Gal(b1-4)Glc6S
# Procedure, shortened: as §1
# Fuc(a1-2)Gal(b1-4)GlcNAc = target: Fuc(a1-2)Gal(b1-4)GlcNAc
# Procedure, shortened: as §1
# [19] = target: Fuc(a1-2)Gal(b1-4)GlcNAc(b1-2)Man
# Procedure, shortened: as §1
# [20] = target: Fuc(a1-2)Gal(b1-4)GlcNAc(b1-2)Man(a1-3)[Fuc(a1-2)Gal(b1-4)GlcNAc(b1-2)Man(a1-6)]Man(b1-4)GlcNAc(b1-4)GlcNAc
# Procedure, shortened: as §1
# [21] = target: Fuc(a1-2)Gal(b1-4)GlcNAc(b1-2)Man(a1-3)[Fuc(a1-2)Gal(b1-4)GlcNAc(b1-2)Man(a1-6)]Man(b1-4)GlcNAc(b1-4)[Fuc(a1-6)]GlcNAc
# Procedure, shortened: as §1
# [22] = target: Fuc(a1-2)Gal(b1-4)GlcNAc(b1-2)[Fuc(a1-2)Gal(b1-4)GlcNAc(b1-4)]Man(a1-3)[Fuc(a1-2)Gal(b1-4)GlcNAc(b1-2)Man(a1-6)]Man(b1-4)GlcNAc(b1-4)GlcNAc
# Procedure, shortened: as §1
# [23] = target: Fuc(a1-2)Gal(b1-4)GlcNAc(b1-3)Gal(b1-4)GlcNAc
# Procedure, shortened: as §1
# [24] = target: Fuc(a1-2)Gal(b1-4)GlcNAc(b1-3)Gal(b1-4)GlcNAc(b1-2)Man(a1-3)[Fuc(a1-2)Gal(b1-4)GlcNAc(b1-3)Gal(b1-4)GlcNAc(b1-2)Man(a1-6)]Man(b1-4)GlcNAc(b1-4)GlcNAc
# Procedure, shortened: as §1
binder,measurement,setting,value
B1,glycan array binding signal (z-score),Fuc(a1-2)Gal,0.179
same,glycan array binding signal (z-score),Fuc(a1-2)Gal(b1-3)GalNAc,-0.111
same,glycan array binding signal (z-score),[1],-0.102
same,glycan array binding signal (z-score),[2],-0.301
same,glycan array binding signal (z-score),[3],0.156
same,glycan array binding signal (z-score),[4],-0.143
same,glycan array binding signal (z-score),[5],-0.296
same,glycan array binding signal (z-score),Fuc(a1-2)Gal(b1-3)GlcNAc,-0.005
same,glycan array binding signal (z-score),[6],-0.139
same,glycan array binding signal (z-score),[7],-0.301
same,glycan array binding signal (z-score),[8],-0.168
same,glycan array binding signal (z-score),[9],-0.342
same,glycan array binding signal (z-score),[10],0.526
same,glycan array binding signal (z-score),[11],-0.659
same,glycan array binding signal (z-score),[12],-0.241
same,glycan array binding signal (z-score),[13],0.107
same,glycan array binding signal (z-score),[14],-0.428
same,glycan array binding signal (z-score),[15],-0.121
same,glycan array binding signal (z-score),[16],-0.061
same,glycan array binding signal (z-score),[17],-0.412
same,glycan array binding signal (z-score),[18],-0.148
same,glycan array binding signal (z-score),Fuc(a1-2)Gal(b1-4)Glc,-0.469
same,glycan array binding signal (z-score),Fuc(a1-2)Gal(b1-4)Glc6S,-0.217
same,glycan array binding signal (z-score),Fuc(a1-2)Gal(b1-4)GlcNAc,-0.157
same,glycan array binding signal (z-score),[19],-0.283
same,glycan array binding signal (z-score),[20],-0.153
same,glycan array binding signal (z-score),[21],-0.397
same,glycan array binding signal (z-score),[22],-0.517
same,glycan array binding signal (z-score),[23],-0.388
same,glycan array binding signal (z-score),[24],0.071
